# Measured values as given in PubChem BioAssay AID686978 (National Center for Advancing Translational Sciences (NCATS), 2013).
# The campaign covered roughly 420,000 compounds. About 64,000 (15%) were called active. The shares of active, inactive and inconclusive entries below differ from those in the screen. The call rests on the fitted dose curve; in most records, active means well fitted inhibition curve with a large enough effect; inconclusive means small, poorly fitted or top-dose-only effect; inactive means flat fitted curve, though single readings scatter. No potency is given beside an inconclusive call; the fits are too rough. A structure can be active in one record and inactive in another.
# Assay: qHTS for Inhibitors of human tyrosyl-DNA phosphodiesterase 1 (TDP1): qHTS in cells in absence of CPT; further: nearly all actives have a fitted effect of over 55% in size
# Conditions: DT40 Tdp1-/- hTDP1 cells, no CPT, ATP luminescence, 48 h; activity change, negative = growth inhibition: at 46.2 µM (top of the series) unless noted
# Summary of the method: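 DT40 Tdp1-/-;hTDP1 cells, no CPT (DMSO vehicle only), 400 cells/well; compounds pin-transferred; ≥48 hr, 37 °C; CellTiter-Glo 30 min RT dark, luminescence read.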
# On the % scale 0 is the no-effect control and ±100 the full control effect; potency means the concentration at half of the fitted maximal effect; tags describe the fitted curve by direction and shape.
SMILES,Potency,"activity change, negative = growth inhibition"
N/C(=N\OC(=O)c1cccnc1)c1ccccc1Cl,"inconclusive [inhibitor, single point]",
COc1ccc(CNc2nc(-c3ccco3)nn2C(=O)CC(C)C)cc1,,inactive: -12.8%
Fc1ccccc1CNC(=S)Nc1cccc(C(F)(F)F)c1,active: 23.1 µM,
COc1ccc(NC(=O)Cn2c(=O)oc3cc(S(=O)(=O)N4CCCC4)ccc32)c(OC)c1,"inconclusive [inhibitor, single point]",
CC(C)c1ccc(C(=O)NN2C(=O)C3CCCCC3C2=O)cc1 (centres undefined),,inactive: -6%
CC(C)[C@H]1COCCS(=O)(=O)N1Cc1ccccc1,active: 10 µM,
O=[N+]([O-])/C=C/c1ccc2c(ccn2Cc2ccccc2)c1,active: 4.11 µM,
O=C1OC(c2ccc(O)cc2)(c2ccccc2O)c2ccccc21 (centres undefined),,inactive: -18.6%
CCc1ccc(C2=NN(c3ccc(S(N)(=O)=O)cc3)C(c3ccc(F)cc3)C2)cc1 (centres undefined),"inconclusive [inhibitor, single point]",
O=C(Nc1ccc(N2CCCC2)c(Cl)c1)c1ccc([N+](=O)[O-])cc1,,inactive: 0.364%
C=CCC(c1ccccc1F)N(CCN1CCOCC1)C(=O)Nc1cccc(Cl)c1 (centres undefined),"inconclusive [inhibitor, single point]",
CCN(CC)S(=O)(=O)c1ccc(=O)n(CC(=O)N2CCCc3cc(C)ccc32)c1,,inactive: -10.5%
Cc1nn(C(C)C(=O)NCc2cccs2)c(=O)c2nn(-c3ccccc3)c(C)c12 (centres undefined),"inconclusive [inhibitor, single point]",
COc1cc(OC)nc(Nc2nc(C(N)Cc3ccc(Cl)cc3)cs2)n1 (centres undefined),active: 14.6 µM,
O=C(c1ccc2c(c1)OCO2)N1CCN(c2ccc(C(F)(F)F)cn2)CC1,"inconclusive [inhibitor, single point]",
Cc1ccc(S(=O)(=O)c2nc(-c3ccco3)oc2N2CCC(C)CC2)cc1,"inconclusive [inhibitor, single point]",
O=C(Nc1cc(C(F)(F)F)ccc1Cl)c1ccc2c(c1)CCN2S(=O)(=O)c1ccccc1,active: 11.6 µM,
COCCCNc1ccn2nc(-c3cccc(Cl)c3)cc2n1,"inconclusive [inhibitor, partial curve]",
Cn1c(SCC(=O)NCc2ccc3c(c2)OCO3)ncc(C(=O)Nc2ccc(F)cc2)c1=O,"inconclusive [inhibitor, partial curve, poor fit]",
CCCCC(=O)Nc1ccccc1N1CCN(c2ccc(F)cc2)CC1,active: 16.4 µM,
Cc1noc(NS(=O)(=O)c2ccc(NC(=O)c3ccc(N(C)C)cc3)cc2)c1C,,inactive: -6.86%
Cc1c(-c2nc(N)nc(Nc3ccc(F)cc3)n2)oc2ccccc12,"inconclusive [inhibitor, single point]",
COc1cccc(NCc2cc(=O)oc3cc(C)c(O)cc23)c1,"inconclusive [inhibitor, partial curve]",
COc1ccc(S(=O)(=O)N2CCCCCC2)cc1C(=O)N(C)Cc1ccc(F)cc1,"inconclusive [inhibitor, single point]",
CC(C)(C)[C@H]1C=C(C(=O)NCc2ccccc2)O[C@@H](OCCCCO)C1,,inactive: -17.2%

SMILES,Potency,"activity change, negative = growth inhibition"
CCOc1nc(Nc2ccc(OC)cc2OC)nc(OCC)n1,active: 16.4 µM,
O=C(COC(=O)c1cc(Cl)ccc1O)NCC1CCCO1 (centres undefined),,inactive: -13.6%
Cc1cc(=O)n2nc(N3CCCC(C(=O)NCc4cccc(Cl)c4)C3)sc2n1 (centres undefined),,inactive: 20.8%
CCc1ccccc1NC(=O)/C(=C/c1ccco1)c1ccccc1,active: 18.4 µM,
CCn1cc(C2=NOC(C(=O)Nc3c(C)nn(Cc4ccc(F)cc4)c3C)C2)c(C)n1 (centres undefined),"inconclusive [inhibitor, single point]",
COc1ccc(Cl)cc1NC(=O)CNC(c1ccccc1)c1ccccc1,"inconclusive [inhibitor, single point]",
COc1ccc(-c2nn3c(-c4cc(-c5ccccc5)n[nH]4)nnc3s2)cc1OC,active: 4.47 µM,
COc1cc(C)ccc1OCCCCOc1ccccc1C(C)=O,"inconclusive [inhibitor, single point]",
Cc1ccc(-c2cc(C(=O)N/N=C/c3ccc([N+](=O)[O-])o3)c3ccccc3n2)o1,active: 13 µM,
CC(OC(=O)CNC(=O)c1ccco1)C(=O)Nc1ccc(Cl)cn1 (centres undefined),,inactive: -3.04%
COc1ccc(-c2nc(NC(=O)c3c(C)noc3C)sc2C)cc1,active: 20.6 µM,
Nc1c(-c2cccs2)cnc2c(-c3ccc(F)cc3)cnn12,"inconclusive [inhibitor, partial curve]",
COc1ccc(C2c3ccc4ccccc4c3Oc3ncn(CCN4CCOCC4)c(=N)c32)cc1 (centres undefined),"inconclusive [inhibitor, single point]",
NC(=O)NC(=O)COC(=O)/C=C/c1cccc(Br)c1,,inactive: -6.77%
CCC(C)(C)C(=O)O[C@H]1C[C@@H](C)C=C2C=C[C@H](C)[C@H](CC[C@@H]3C[C@@H](O)CC(=O)O3)[C@H]21,active: 20.6 µM,
COc1cc(C2NC(=O)NC(C)=C2C(C)=O)ccc1O (centres undefined),,inactive: 0.561%
CC(C)c1ccccc1NC(=O)COC(=O)C1(C)CC1(Cl)Cl (centres undefined),,inactive: 9.98%
COc1ccc(C2c3ccc4ccccc4c3Oc3ncn(CCCO)c(=N)c32)cc1OC (centres undefined),active: 20.6 µM,
COc1ccc(CCNC(=O)COc2cccc3c2OC(C)(C)C3)cc1OC,"inconclusive [inhibitor, single point]",
CCCC(O)(c1ccc(Cl)cc1)C(CN1CCOCC1)c1ccccc1 (centres undefined),"inconclusive [inhibitor, single point]",
Cc1ccccc1NC(=O)CN1CCC(NC(=O)Nc2ccccc2)CC1,"inconclusive [inhibitor, single point]",
CC(=O)c1c(C)oc2ccc(NS(=O)(=O)c3ccc(C(C)C)cc3)cc12,active: 5.8 µM,
Cc1cccn2c(=O)c(/C=C(\C#N)C(N)=O)c(N3CCN(c4ccccc4)CC3)nc12,active: 6.51 µM,
COc1cc(N(C)C)ccc1[C@]1(O)C(=O)N(C)c2ccc(Br)cc21,"inconclusive [inhibitor, single point]",
